In PubChem BioAssay (NCI):
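Five concentrations, 48 hours, 96-well plates. GI50: concentration for 50% inhibition of growth.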 For part of its entries the source gives two or more results. The other results are left out here. An entry can have further records. For part of these data: A record mostly stands for its own series of concentrations, which the source does not state; a value can be the end of its range. For part of these data: The values listed for one entry repeat one measurement across runs, samples, wells, individuals or studies. What stands in brackets tells the records apart. A, B and so on number the origins entry by entry.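 TGI marks complete inhibition of growth.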

What was measured:
Assay in all cases: growth of human tumour cells (NCI), 48 h
[1] = test system: UACC-62 melanoma
[2] = test system: HS 578T breast
[3] = test system: SK-OV-3 ovarian
[4] = test system: T-47D breast
[5] = test system: A549 NSCLC
[6] = test system: OVCAR-3 ovarian
[7] = test system: NCI-H460 lung
[8] = test system: HCT-116 colon
[9] = test system: HL-60(TB) leukemia
[10] = test system: UO-31 renal
[11] = test system: SNB-19 CNS
[12] = test system: CCRF-CEM leukemia
[13] = test system: UACC-257 melanoma
[14] = test system: HCC-2998 colon
[15] = test system: M14 melanoma
[16] = test system: NCI-H522 lung
[17] = test system: OVCAR-4 ovarian
[18] = test system: SW-620 colon
[19] = test system: SK-MEL-5 melanoma
[20] = test system: EKVX NSCLC
[21] = test system: NCI-H23 lung
[22] = test system: MOLT-4 leukemia
[23] = test system: 786-0 renal
[24] = test system: SF-268 CNS
[25] = test system: ACHN renal
[26] = test system: HOP-62 NSCLC
[27] = test system: NCI-H226 lung
[28] = test system: KM12 colon
[29] = test system: COLO 205 colon
[30] = test system: LOX IMVI melanoma
[31] = test system: A498 renal
[32] = test system: MALME-3M melanoma
[33] = test system: CAKI-1 renal
[34] = test system: RPMI-8226 leukemia
[35] = test system: SN12C renal
[36] = test system: HOP-92 NSCLC

## CN(C)CC1COC2Cc3ccccc3C1O2 (centres undefined)
[1]
  GI50: > 100 µM [sample A, 1 test] and 7.78 µM [sample B, 1 test]

## COc1cc(Nc2ncc(F)c(Nc3ccc4c(n3)NC(=O)C(C)(C)O4)n2)cc(OC)c1OC
[2]
  TGI: 820 nM [sample A, 1 test] and > 10 µM [sample B, 1 test]
[3]
  GI50: > 100 µM [sample A, 1 test] and 1.19 µM [sample B, 1 test]
[4]
  GI50: > 100 µM [sample A, 1 test] and 3.53 µM [sample B, 1 test]

## COc1ccc(C[C@@H]2NC[C@@H](O)[C@@H]2OC(C)=O)cc1
[5]
  TGI: 974 nM and > 100 µM
[6]
  TGI: 237 nM and > 100 µM
[7]
  TGI: 315 nM and > 100 µM
[8]
  TGI: 91.7 nM and > 100 µM
[9]
  TGI: 18.2 nM and > 100 µM
[10]
  TGI: 156 nM and > 100 µM
[11]
  TGI: 128 nM and > 100 µM
[12]
  TGI: 70.7 nM and > 100 µM
[13]
  TGI: 233 nM and 68.2 µM
[14]
  TGI: 134 nM and 12.7 µM
[15]
  TGI: 131 nM and > 100 µM
[16]
  TGI: 116 nM and > 100 µM
[17]
  TGI: 62.4 nM and > 100 µM
[18]
  TGI: 247 nM and > 100 µM
[19]
  TGI: 71.1 nM and 2.23 µM
[20]
  TGI: 411 nM and > 100 µM
[21]
  TGI: 114 nM and 27.3 µM
[22]
  TGI: 65.9 nM and 49.7 µM
[23]
  TGI: 237 nM and > 100 µM
[24]
  TGI: 96.7 nM and > 100 µM
[25]
  TGI: 78.3 nM and > 100 µM
[26]
  TGI: 135 nM and > 100 µM
[27]
  TGI: 280 nM and 30.9 µM
[28]
  TGI: 130 nM and > 100 µM
[1]
  TGI: 159 nM and 33.8 µM
[29]
  TGI: 23.2 nM and > 100 µM
[30]
  TGI: 24.7 nM and > 100 µM
[31]
  TGI: 52.2 nM and 27.4 µM
[32]
  TGI: 293 nM and > 100 µM
[33]
  TGI: 90.9 nM and > 100 µM
[34]
  TGI: 97.3 nM and > 100 µM
[35]
  TGI: 526 nM and 43.1 µM

## COC1C(O)C(C)OC(OC2C(Oc3cccc4c(O)c5c(=O)oc6ccc(C)c7c(=O)oc(c34)c5c67)OC(C)C(O)C2O)C1O (centres undefined)
[36]
  TGI: > 36.5 µM and 492 nM
[33]
  GI50: 4.83 µM [mean of 3 tests] and 213 nM [mean of 4 tests]
  TGI: > 57.7 µM [mean of 3 tests] and 1.08 µM [mean of 4 tests]
